# The supplement of paper PMC11383711
# The other results are listed elsewhere or left out. Binding of human antibodies (heavy:light variable regions, tested as scFv in one mRNA-display pool) to influenza hemagglutinin, with or without the stem antibody CR9114 bound first. Score = (mean enrichment − median) / interquartile range of that screen; higher = more enriched, 0 = typical non-binder. Active = above the paper's cut-off per screen: stems 28; unblocked H1 Solomon Islands 5, H1 Michigan 3, H3 5, H5 19, H7 2.85, both B 5; blocked 9, 7, H5 10, H7 10, B Phuket 10, B Lee 11.5. Scores are scaled within each screen and are no affinities; replicates correlate at about 0.6 to 0.9, and antibodies rare in the pool are noisier.
# B1: 01.ac.01 (protein)
# chain 1: QVQVVQSGAEVRKPGASVRLSCKASGYTFDNYYIHWMRQAPGQGLEWMALINPSAGSTIFAQKFHGRVTMTRDTSTSAVHMELSGLRSEDTAVYYCARSQTWGYNIYFDYWGQGTLVTVSS
# chain 2: EIVLTQSPVSLSLSPGERATLSCRASQSVSIIYLAWYQQRPGQAPRLLIYGASSRATGIPDRFSGSGCGTDFTLTISRLEHEDSAVYYCQQCGGTYPTFGQGTKVEIK
# B2: R95-2F01 (protein)
# chain 1: QVQLQESGPGLVKPSETLSLTCTVSGGSISSHYWSWIRQPPGKGLEWIGYIYDSGKTNHNPTLKSRVTISADTSKNQFSLKLSSVTAADTAVYYCASARRYCSSTSCYGLEYYFGMDVWGQGTTVTVSS
# chain 2: DIVMTQSPLSLPVTPGEPASISCRSSQSLVHSNGHNYLDWYLQKPGQSPQLLIYLSSSRASGVPDRFSGSGSGTDFTLKINRVEAEDVGVYFCMQALQAPYTFGQGTRLEIK
# B3: 01.r.01 (protein)
# chain 1: QVQLQESGPGLVKPSQTLSLTCTVSGGSISSGSYYWSWIRQPAGKGLEWIGSIYTSGSTDYNPSLKNRVSISIDTSKNHFSLVLSSVTAADTAVYFCARDQWEGAFSYGAGFWGQGAVVTVSS
# chain 2: DIQMTQSLSSVSASIGDRVTIICRASQGVGNWLVWYQQKPGKARKLLMYAASTLQTDVPSRVSGRGYGTEFTLTISSEQHEDYANYYCQQAHSQPRTFGQGTKVEVK
# B4: SFV018-4D01 (protein)
# chain 1: QVQLQESGPGLVKPSETLSLTCSVSGGSISPHYWSWIRQPPGKGLEWIGYIYYAGSTNYSPSLKNRVTISVDTSKNHFSLQLRSVTAADTAVYYCARGGFPAELPPPLDPWGQGNLVTVSS
# chain 2: SYELTQPPSVSVSPGQTASITCSGDNLGDKFASWYQQKPGQSPVLVIYQDIRRPSGIPERFSASNSGNTATLTISGTQVMDEADYYCQTWDSSTVLFGGGTKLTVL
# B5: W85-1E07 (protein)
# chain 1: EVQLVESGGGLVQPGGSLRLSCAASGFKVGDNYMSWVRQAPGKGLEWVSIIYGGGRTYYADSVKGRFTLSRDNSKNTLSLQMNSLRGEDTAVYYCARDGVAGGEGAYDIWGQGTMVTVSS
# chain 2: DIQMTQSPSSLSASVGDRVIITCRASQPISSYLNWYQQKPGKAPNLVIYSASSLQSGVPSRFSGSGSGTDFTLSISNLQPEDFATYYCQQSYSDPYTCGQGTKLEIK
# B6: W85-2F12 (protein)
# chain 1: QVQLQESGPGLVKPSETLSLTCSVSGGSLSSSTYYWGWIRQPPGKGLEWIGSVYYTGSTDYNPSLRSRVSISIDTSKNQFSLKMSSVTAADTAVFYCARYLQWLAPAPLDCWGQGTLVTVSS
# chain 2: DIVMTQSPDSLAVSLGERATINCKSSQSVLYSSINKNYLAWYQQKPGQPPKLLIYWASTRESGVPGRFSGSGSGTDFTLTIGSLQAEDVAVYYCQQYYSAPLTFGGGTKVEMK
# Molecular target: Influenza A H1N1 A/Michigan/45/2015 hemagglutinin ectodomain
# Assay: mRNA display binding score; higher = more enriched on the antigen
# Conditions: antigen blocked with: 2 µM CR9114 IgG
# Procedure: (§1)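 A pool of natively paired antibodies, displayed as scFv on mRNA, was selected once on antigen-coated beads and sequenced before and after; two replicates.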
row,Binder,mRNA display binding score
1,B1,inactive: -0.46
2,B2,inactive: -0.555
3,B3,inactive: -0.271
4,B4,inactive: -0.329
5,B5,inactive: -0.254
6,B6,inactive: -0.101

# Same assay, conditions: antigen blocked with: nothing
row,Binder,mRNA display binding score
1,B1,inactive: -0.135
2,B2,inactive: -0.168
3,B3,inactive: -0.771
4,B4,inactive: -0.738
5,B5,inactive: -0.487
6,B6,inactive: -0.378

# Molecular target: Influenza A H1N1 A/Solomon Islands/3/2006 hemagglutinin ectodomain
# Assay: as above
# Conditions: antigen blocked with: 2 µM CR9114 IgG
# Procedure: as §1
row,Binder,mRNA display binding score
1,B1,inactive: -0.657
2,B2,inactive: -0.288
3,B3,inactive: -0.366
4,B4,inactive: -0.154
5,B5,inactive: -0.00117
6,B6,inactive: 0.0643

# Same assay, conditions: antigen blocked with: nothing
row,Binder,mRNA display binding score
1,B1,inactive: 0.325
2,B2,inactive: -0.0894
3,B3,inactive: -0.582
4,B4,inactive: -0.153
5,B5,inactive: -0.121
6,B6,inactive: -0.428

# Molecular target: Influenza A H3N2 A/Singapore/INFIMH-16-0019/2016 hemagglutinin ectodomain
# Assay: as above
# Conditions: antigen blocked with: nothing
# Procedure: as §1
row,Binder,mRNA display binding score
1,B1,inactive: -0.444
2,B2,inactive: -0.334
3,B3,inactive: -0.545
4,B4,inactive: -0.492
5,B5,inactive: -0.474
6,B6,inactive: -0.55

# Molecular target: Influenza A H5N1 A/Qinghai/1A/2005 hemagglutinin ectodomain
# Assay: as above
# Conditions: antigen blocked with: 2 µM CR9114 IgG
# Procedure: as §1
row,Binder,mRNA display binding score
1,B1,inactive: -0.324
2,B2,inactive: -0.227
3,B3,inactive: -0.89
4,B4,inactive: -1
5,B5,inactive: -0.106
6,B6,inactive: -0.14

# Same assay, conditions: antigen blocked with: nothing
row,Binder,mRNA display binding score
1,B1,inactive: -0.291
2,B2,inactive: -0.196
3,B3,inactive: -0.66
4,B4,inactive: -0.415
5,B5,inactive: -0.395
6,B6,inactive: -0.473

# Molecular target: Influenza A H7N9 A/Shanghai/2/2013 hemagglutinin ectodomain
# Assay: as above
# Conditions: antigen blocked with: 2 µM CR9114 IgG
# Procedure: as §1
row,Binder,mRNA display binding score
1,B1,inactive: -0.463
2,B2,inactive: -1.11
3,B3,inactive: -0.502
4,B4,inactive: 1.68
5,B5,inactive: 0.287
6,B6,inactive: -0.338

# Same assay, conditions: antigen blocked with: nothing
row,Binder,mRNA display binding score
1,B1,inactive: -0.0735
2,B2,inactive: -0.269
3,B3,inactive: -0.765
4,B4,inactive: -0.551
5,B5,inactive: -0.486
6,B6,inactive: -0.0935

# Molecular target: Influenza B/Lee/1940 hemagglutinin ectodomain
# Assay: as above
# Conditions: antigen blocked with: 2 µM CR9114 IgG
# Procedure: as §1
row,Binder,mRNA display binding score
1,B1,inactive: 0.23
2,B2,inactive: -0.0771
3,B3,inactive: 0.0309
4,B4,inactive: -0.0489
5,B5,inactive: -0.238
6,B6,inactive: -0.253

# Same assay, conditions: antigen blocked with: nothing
row,Binder,mRNA display binding score
1,B1,inactive: 0.0347
2,B2,inactive: -0.0741
3,B3,inactive: -0.344
4,B4,inactive: 0.00469
5,B5,inactive: 0.787
6,B6,inactive: -0.311

# Molecular target: Influenza B/Phuket/3073/2013 hemagglutinin ectodomain
# Assay: as above
# Conditions: antigen blocked with: 2 µM CR9114 IgG
# Procedure: as §1
row,Binder,mRNA display binding score
1,B1,inactive: -0.203
2,B2,inactive: -0.498
3,B3,inactive: -0.739
4,B4,inactive: -0.432
5,B5,inactive: -0.000368
6,B6,inactive: -0.544

# Same assay, conditions: antigen blocked with: nothing
row,Binder,mRNA display binding score
1,B1,inactive: -0.123
2,B2,inactive: -0.333
3,B3,inactive: -0.431
4,B4,inactive: -0.205
5,B5,inactive: -0.219
6,B6,inactive: -0.0393
